Results reported in a collection of fitness landscapes (doi:10.1016/j.celrep.2020.107928).
Whole data set: some 81,000 sequences, median “one-hybrid fitness for binding parS DNA” near -0.17, cut for the highest 2% near 0.51. The list shows a part of the results.

B1: Caulobacter ParB omega fusion; a variant is named by its letters at X, in order, B8GW30 (parent)
chain: MESVVVGEPGMSEGRRGLGRGLSALLGEVDAAPAQAPGEQLGGSREAPIEILQRNPDQPRRTFREEDLEDLSNSIREKGVLQPILVRPSPDTAGEYQIVAGERAWRAAQRAGLKTVPIMVRELDDLAVLEIGIIENVQRADLNVLEEALSYKVLMEKFERTQENIAQTIGKSXSHVANXMRLLXLPDEVQSYLVSGELTAXHARAIAAAADPVALAKQIIEGGLSVRETEALARKAPNLSAGKSKGGRPPRVKDTDTQALESDLSSVLGLDVSIDHRGSTGTLTITYATLEQLDDLCNRLTRGI

Variants of: B1
Assay: one-hybrid fitness for binding parS DNA (scaled: cognate 1, non-cognate 0); higher = stronger binding
Details: with parS DNA site
Summary of the method: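 Values were rescaled so that cognate is 1 and non-cognate is 0. Each is a fitness, the log change in a variant's read ratio to wild type from Illumina reads of plasmids before and after selection, with three replicate libraries pooled and variants under 10 reads dropped. Selection of the Caulobacter ParB libraries, four specificity codons randomised, used E. coli USO with a HIS3 reporter, site 19 bp from the promoter, on M9-minus-histidine with 0.1 mM IPTG and 5 mM 3-AT for 48 hours at 37°C.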

one-hybrid fitness for binding parS DNA, 0.414:
RCDY

one-hybrid fitness for binding parS DNA, 0.344:
ICWE

one-hybrid fitness for binding parS DNA, 0.61:
RTHA

one-hybrid fitness for binding parS DNA, 0.256:
RMHW

one-hybrid fitness for binding parS DNA, 0.258:
RCLH

one-hybrid fitness for binding parS DNA, 0.991:
RMWG

one-hybrid fitness for binding parS DNA, ≤ 0.2:
CPPG
PRLG
LNNE
AKHV
SMVC
SGFC
ALKV
DWKE
TDQA
PIRV
PKLN
ALCR
QDQP
QCNV
IGCG
VFSF
PCRT
QEQS
YKRY
AMDR
PYQA
PQPY
WSLQ
HKYT
CYDS
GWYG
PYQG
SDYI
NTKP
VCMM
GWMV
VPDT
FWTR
CNWS
TSKT
TIFR
QGGC
LMYA
HRAN
TQFI
FFNM
SVNM
YESV
NHQM
PRLD
PWAM
DQPY
THIW
DWQR
HAGY
EAAG
ESGR
AIAG
FRYF
ATVK
PLKE
WKQT
SEMS
HSWI
PEMH
QRML
SYSD
KRAT
DHCV
LGLG
QLMW
VCAG
GQQA
QRFC
PMCR
RSDQ
QWKQ
QPGL
RRKK
SWRQ
LKKT
SMHG
NHIP
YWAG
NPCT
MLYR
PVRN
HASG
GRHD
YSEC
ETRR
QLPW
HLWG
MAAL
QRAT
LKHE
LLSA
AGKQ
PPFC
HCMV
TGIN
MSQC
IPYV
VCHQ
SKQR
VQQL
HKFW
TLAW
SATC
HARN
WNMG
SDNY
KAGI
DEAG
QVHK
SANR
AFLD
TLCV
SQKT
EFER
ATAS
YTRA
LHPC
RIKV
TSRA
KQEG
YCSD
RVDH
QSDC
WTSA
RLDE
WIIS
WYWG
PYIR
LRER
HPNV
YMTD
RHWE
RFQV
TNYA
VDPR
LDGR
NNDF
TLSW
LSQG
NANS
GRIS
TVLI
LTHE
ARHI
YPKN
SYAC
DRSR
GLPR
GLVD
QLST
LGPV
VILT
NWMS
LHCQ
HAAV
HSNR
NVVC
NRVR
AMVC
SMPF
RSPL
GSFR
TKES
IRGY
SDWS
RPHP
DYII
SFGA
LMQW
YCHN
EAVW
HEHT
PWVR
WQKT
LENL
TNLE
DVFG
GKMR
QGYS
IDLD
CLYC
LEML
GPDC
FCYR
YMER
RNAP
QCKA
QVSD
TCCD
TTQM
TASA
LVTR
GPVG
YSDF
SDWD
TRVL
DQVG
CSLG
WRQR
LRGI
DFMT
LIAF
TGTF
QYPC
WLTL
RPVC
HCKT
PCCD
HCNG
DHAR
THIG
VLWF
RKIP
THKW
SCMY
PRLM
IPPC
SIWS
NPNR
TQAF
LQAF
SLRD
GDWS
PIWE
VFLG
TIDS
CSVW
QCSE
GWKM
AKPS
KMSV
KKAM
RPME
NVNG
TNCG
DYPL
WKNR
QLFA
LQKI
CGMG
FPCM
DGRC
WVLT
QLAM
QREY
PRPH
QILC
VEHK
DVSC
GIGA
LRVF
LGDR
NCNT
APSM
PYAH
FHEV
VMYG
PAIF
APAP
PLAH
AVQG
PPSM
GLFL
MFYR
SSMI
PRPR
SRGD
QQCN
ENPS
PSLN
LETG
RPVK
GSTL
HHSV
MTIS
LTWR
AHTQ
MGKG
AILE
PDER
EHTG
DAAV
LAVL
VHMS
DYPY
KRQR
PCMR
YEDL
WRFC
SRNT
EQSW
VVWT
TKKF
HQHC
NLID

one-hybrid fitness for binding parS DNA, 0.747:
RTRT

one-hybrid fitness for binding parS DNA, 0.401:
RWRN

one-hybrid fitness for binding parS DNA, 0.853:
RYGT

one-hybrid fitness for binding parS DNA, 0.431:
RALN
